{"source": "patent US20070059684A1", "about": "(UNIVERSITY OF MEDICINE AND DENTISTRY OF NEW JERSEY, published 2007)", "key": {"[1]": {"tested_on": "−1 ribosomal frameshifting in mak8-2 cells", "conditions": "mak8-2 cells (1906)", "method": "FIG. 9. 1906 Cells (MATa leu2 mak8-2 K− MTK+) harboring either pJD136.0 or pJD136.-1 (LEU2 CEN vectors into which Hind III fragments from either pTI25 or pF8 containing either the 0-frame control or −1 ribosomal frameshift indicator fragments were cloned) were inoculated to an O.D.550 of 0.2 in H-Leu medium containing the indicated concentrations of anisomycin or sparsomycin and incubated at 30° C. for 5 hrs, after which _-galactosidase (_-gal) activities were determined. (A, B) As described above for FIGS. 8A and 8B. (C, D) The ordinate depicts actual −1 ribosomal frameshifting efficiencies.\nThe model also predicts that host cells harboring mutations in gene products involved in the formation of the peptidyl transferase center should 1) have efficiencies of −1 ribosomal frameshifting different from wild-type cells, 2) should have viral propagation defects and, 3) neither anisomycin nor sparsomycin should have any additional effects upon −1 ribosomal frameshifting efficiencies. The TCM1 (MAK8) gene encodes ribosomal protein L3 [Fried and Warner, Proc. Natl. Acad. Sci. USA, 78:238 (1981); Fried and Warner, Nucl. […] The efficiency of −1 ribosomal frameshifting in mak8-2 cells in the absence of drugs was determined to be approximately 5.2% (FIG. 9A,B, no drug). […]"}, "translation (LUC0 mRNA)": {"tested_on": "translation (LUC0 mRNA)", "method": "(§1) FIG. 14. The LUC0 and LUC-1 mRNAs were used to measure the effects of anisomycin and sparsomycin on translation and −1 ribosomal frameshifting in an in vitro rabbit reticulocyte translation system (Retic Lysated WVT kit, Ambion). As in FIG. 13, 20 ng of either LUC0 or LUC-1 mRNAs were used for these assays.\n(§2) As a first step, the LUC0 and LUC-1 mRNAs were used to measure the effects of these two drugs on translation and −1 ribosomal frameshifting in an in vitro rabbit reticulocyte translation system. […] Some notable differences were observed. First, the reticulocyte extracts were approximately 10 times more sensitive to anisomycin and 100 times more sensitive to sparsomycin than were the yeast extracts. […] With regard to −1 ribosomal frameshifting, the reticulocyte system was much more sensitive to both drugs. The highest concentration of anisomycin (15.2 nM) decreased −1 ribosomal frameshifting efficiencies to only 3% of the no drug control, effectively shutting it down. […] As with the yeast in vitro translation system, initial efficiencies of −1 ribosomal frameshifting were higher than observed in vivo, again most likely due to stabilization of the LUC-1 mRNA in this system."}, "[2]": {"tested_on": "−1 ribosomal frameshifting", "method": "as §1, §2"}, "[3]": {"tested_on": "−1 ribosomal frameshifting", "conditions": "yeast extract, increasing concentrations, 24° C. 1 hr"}, "[4]": {"tested_on": "−1 ribosomal frameshifting (L-A frameshift signal, pF8)", "assay": "paromomycin effect on LacZ gene expression / % −1 ribosomal frameshifting in mof4-1 strains", "conditions": "for % −1 ribosomal frameshifting: 30° C. 4 hours"}}, "data": [{"smiles": "COc1ccc(C[C@H]2NC[C@H](O)[C@H]2OC(C)=O)cc1", "note": "[anisomycin]", "values": [{"measurement": "efficiency of −1 ribosomal frameshifting", "setting": "[1]", "result": "neither of these drugs affects the efficiency of −1 ribosomal frameshifting"}, {"measurement": "overall production of luciferase from the LUC0 mRNA", "setting": "translation (LUC0 mRNA)", "result": "stimulated overall production of luciferase"}, {"measurement": "sensitivity of reticulocyte extracts relative to yeast extracts", "setting": "[2]", "result": "approximately 10 times"}, {"measurement": "−1 ribosomal frameshifting", "setting": "[2]; […]", "result": "inhibits"}, {"measurement": "−1 ribosomal frameshifting efficiency as % of the no drug control", "setting": "[2]; highest concentration of anisomycin (15.2 nM)", "result": 3, "unit": "%"}, {"measurement": "efficiency of −1 ribosomal frameshifting in vitro", "setting": "[3]", "result": "decreased the efficiency of −1 ribosomal frameshifting"}]}, {"smiles": "NC[C@@H]1O[C@H](O[C@H]2[C@@H](O)[C@H](O[C@@H]3[C@@H](O)[C@H](N)C[C@H](N)[C@H]3O[C@H]3O[C@H](CO)[C@@H](O)[C@H](O)[C@H]3N)O[C@@H]2CO)[C@H](N)[C@@H](O)[C@@H]1O", "note": "[paromomycin]", "values": [{"measurement": "% −1 ribosomal frameshifting", "setting": "[4]; mof4-1 + pUPF1, paromomycin 5 μg/ml", "result": 2.2, "unit": "%"}, {"measurement": "% −1 ribosomal frameshifting", "setting": "[4]; mof4-1 + pUPF1, paromomycin 10 μg/ml", "result": 3.0, "unit": "%"}, {"measurement": "% −1 ribosomal frameshifting", "setting": "[4]; mof4-1 + pUPF1, paromomycin 25 μg/ml", "result": 2.9, "unit": "%"}, {"measurement": "% −1 ribosomal frameshifting", "setting": "[4]; mof4-1 + pUPF1, paromomycin 50 μg/ml", "result": 2.0, "unit": "%"}, {"measurement": "% −1 ribosomal frameshifting", "setting": "[4]; mof4-1 + pUPF1, paromomycin 100 μg/ml", "result": 2.6, "unit": "%"}, {"measurement": "% −1 ribosomal frameshifting", "setting": "[4]; mof4-1 + pUPF1, paromomycin 250 μg/ml", "result": 2.2, "unit": "%"}, {"measurement": "% −1 ribosomal frameshifting", "setting": "[4]; mof4-1 + pUPF1, paromomycin 500 μg/ml", "result": 2.2, "unit": "%"}, {"measurement": "% −1 ribosomal frameshifting", "setting": "[4]; mof4-1, paromomycin 5 μg/ml", "result": 9.2, "unit": "%"}, {"measurement": "% −1 ribosomal frameshifting", "setting": "[4]; mof4-1, paromomycin 10 μg/ml", "result": 9.4, "unit": "%"}, {"measurement": "% −1 ribosomal frameshifting", "setting": "[4]; mof4-1, paromomycin 25 μg/ml", "result": 13.5, "unit": "%"}, {"measurement": "% −1 ribosomal frameshifting", "setting": "[4]; mof4-1, paromomycin 50 μg/ml", "result": 14.7, "unit": "%"}, {"measurement": "% −1 ribosomal frameshifting", "setting": "[4]; mof4-1, paromomycin 100 μg/ml", "result": 15.3, "unit": "%"}, {"measurement": "% −1 ribosomal frameshifting", "setting": "[4]; mof4-1, paromomycin 250 μg/ml", "result": 17.8, "unit": "%"}, {"measurement": "% −1 ribosomal frameshifting", "setting": "[4]; mof4-1, paromomycin 500 μg/ml", "result": 22.2, "unit": "%"}, {"measurement": "LacZ expression (β-galactosidase activity)", "setting": "[4]; mof4-1 strain, increasing concentrations of paromomycin", "result": "steadily climbed"}, {"measurement": "β-galactosidase activity", "setting": "[4]; wildtype strain or mof4-1 strain harboring the wildtype UPF1 gene, addition of paromomycin", "result": "unaffected"}]}]}
